Data on 31 molecules can be found in publication PMC9911399, “Two distinct binding modes provide the RNA-binding protein RbFox with extraordinary sequence specificity”.

First the molecules themselves.
B1: UAGAAAU (DNA:RNA)
RNA: GGGAGACCGGAAUUCAGAUUGUCCUAGAAAUUUAAAUCCCGUCGUAGCCACCA
DNA 1: CAATCTGAATTCCGGTCTCCC
DNA 2: TGGTGGCTACGACGGGATT
B2: AUGACAA (DNA:RNA)
RNA: B1 RNA with U25A, A26U, A29C, U31A
DNA 1: CAATCTGAATTCCGGTCTCCC
DNA 2: TGGTGGCTACGACGGGATT
B3: AACACCC (DNA:RNA)
RNA: B1 RNA with U25A, G27C, A29C, A30C, U31C
DNA 1: CAATCTGAATTCCGGTCTCCC
DNA 2: TGGTGGCTACGACGGGATT
B4: CCCCAGG (DNA:RNA)
RNA: B1 RNA with U25C, A26C, G27C, A28C, A30G, U31G
DNA 1: CAATCTGAATTCCGGTCTCCC
DNA 2: TGGTGGCTACGACGGGATT
B5: UUAUCCA (DNA:RNA)
RNA: B1 RNA with A26U, G27A, A28U, A29C, A30C, U31A
DNA 1: CAATCTGAATTCCGGTCTCCC
DNA 2: TGGTGGCTACGACGGGATT
B6: GCAAGUU (DNA:RNA)
RNA: B1 RNA with U25G, A26C, G27A, A29G, A30U
DNA 1: CAATCTGAATTCCGGTCTCCC
DNA 2: TGGTGGCTACGACGGGATT
B7: CCAAUAU (DNA:RNA)
RNA: B1 RNA with U25C, A26C, G27A, A29U
DNA 1: CAATCTGAATTCCGGTCTCCC
DNA 2: TGGTGGCTACGACGGGATT
B8: UUGAGUC (DNA:RNA)
RNA: B1 RNA with A26U, A29G, A30U, U31C
DNA 1: CAATCTGAATTCCGGTCTCCC
DNA 2: TGGTGGCTACGACGGGATT
B9: GGCUGCU (DNA:RNA)
RNA: B1 RNA with U25G, A26G, G27C, A28U, A29G, A30C
DNA 1: CAATCTGAATTCCGGTCTCCC
DNA 2: TGGTGGCTACGACGGGATT
B10: GGACCGG (DNA:RNA)
RNA: GGGAGACCGGAAUUCAGAUUGUCCGGACCGGUUAAAUCCCGUCGUAGCCACCA
DNA 1: CAATCTGAATTCCGGTCTCCC
DNA 2: TGGTGGCTACGACGGGATT
B11: UCUACGG (DNA:RNA)
RNA: B10 RNA with G25U, G26C, A27U, C28A
DNA 1: CAATCTGAATTCCGGTCTCCC
DNA 2: TGGTGGCTACGACGGGATT
B12: GUAGGCU (DNA:RNA)
RNA: B10 RNA with G26U, C28G, C29G, G30C, G31U
DNA 1: CAATCTGAATTCCGGTCTCCC
DNA 2: TGGTGGCTACGACGGGATT
B13: UAUGCCG (DNA:RNA)
RNA: B10 RNA with G25U, G26A, A27U, C28G, G30C
DNA 1: CAATCTGAATTCCGGTCTCCC
DNA 2: TGGTGGCTACGACGGGATT
B14: GGGGUAC (DNA:RNA)
RNA: B10 RNA with A27G, C28G, C29U, G30A, G31C
DNA 1: CAATCTGAATTCCGGTCTCCC
DNA 2: TGGTGGCTACGACGGGATT
B15: CAGGCGU (DNA:RNA)
RNA: B1 RNA with U25C, A28G, A29C, A30G
DNA 1: CAATCTGAATTCCGGTCTCCC
DNA 2: TGGTGGCTACGACGGGATT
B16: AGACCUG (DNA:RNA)
RNA: B10 RNA with G25A, G30U
DNA 1: CAATCTGAATTCCGGTCTCCC
DNA 2: TGGTGGCTACGACGGGATT
B17: CGCCCAU (DNA:RNA)
RNA: B10 RNA with G25C, A27C, G30A, G31U
DNA 1: CAATCTGAATTCCGGTCTCCC
DNA 2: TGGTGGCTACGACGGGATT
B18: UGACGGU (DNA:RNA)
RNA: B10 RNA with G25U, C29G, G31U
DNA 1: CAATCTGAATTCCGGTCTCCC
DNA 2: TGGTGGCTACGACGGGATT
B19: AUGCGCU (DNA:RNA)
RNA: B1 RNA with U25A, A26U, A28C, A29G, A30C
DNA 1: CAATCTGAATTCCGGTCTCCC
DNA 2: TGGTGGCTACGACGGGATT
B20: AACGACG (DNA:RNA)
RNA: B1 RNA with U25A, G27C, A28G, A30C, U31G
DNA 1: CAATCTGAATTCCGGTCTCCC
DNA 2: TGGTGGCTACGACGGGATT
B21: AUAAAAG (DNA:RNA)
RNA: B1 RNA with U25A, A26U, G27A, U31G
DNA 1: CAATCTGAATTCCGGTCTCCC
DNA 2: TGGTGGCTACGACGGGATT
B22: GGACGUA (DNA:RNA)
RNA: B10 RNA with C29G, G30U, G31A
DNA 1: CAATCTGAATTCCGGTCTCCC
DNA 2: TGGTGGCTACGACGGGATT
B23: UCGCGCC (DNA:RNA)
RNA: B1 RNA with A26C, A28C, A29G, A30C, U31C
DNA 1: CAATCTGAATTCCGGTCTCCC
DNA 2: TGGTGGCTACGACGGGATT
B24: CUGUUCU (DNA:RNA)
RNA: B1 RNA with U25C, A26U, A28U, A29U, A30C
DNA 1: CAATCTGAATTCCGGTCTCCC
DNA 2: TGGTGGCTACGACGGGATT
B25: UAUGUUA (DNA:RNA)
RNA: B1 RNA with G27U, A28G, A29U, A30U, U31A
DNA 1: CAATCTGAATTCCGGTCTCCC
DNA 2: TGGTGGCTACGACGGGATT
B26: GGAGAAA (DNA:RNA)
RNA: B10 RNA with C28G, C29A, G30A, G31A
DNA 1: CAATCTGAATTCCGGTCTCCC
DNA 2: TGGTGGCTACGACGGGATT
B27: CCGCCGA (DNA:RNA)
RNA: B10 RNA with G25C, G26C, A27G, G31A
DNA 1: CAATCTGAATTCCGGTCTCCC
DNA 2: TGGTGGCTACGACGGGATT
B28: UAAGAAA (DNA:RNA)
RNA: B1 RNA with G27A, A28G, U31A
DNA 1: CAATCTGAATTCCGGTCTCCC
DNA 2: TGGTGGCTACGACGGGATT
B29: AAACUUA (DNA:RNA)
RNA: B10 RNA with G25A, G26A, C29U, G30U, G31A
DNA 1: CAATCTGAATTCCGGTCTCCC
DNA 2: TGGTGGCTACGACGGGATT
B30: UCGGCGC (DNA:RNA)
RNA: B10 RNA with G25U, G26C, A27G, C28G, G31C
DNA 1: CAATCTGAATTCCGGTCTCCC
DNA 2: TGGTGGCTACGACGGGATT
B31: CACUCCC (DNA:RNA)
RNA: B10 RNA with G25C, G26A, A27C, C28U, G30C, G31C
DNA 1: CAATCTGAATTCCGGTCTCCC
DNA 2: TGGTGGCTACGACGGGATT

Changes are numbered by the printed parent chain; changes in the protein carry UniProt numbers. This is one part of the list.

The target in the test is T1, RBFOX1 RRM RbFoxmut (Fox-RRM*) (Homo sapiens, UniProt Q9NWB1 109-208, R118D;E147R;N151S;E152T).
T1 sequence: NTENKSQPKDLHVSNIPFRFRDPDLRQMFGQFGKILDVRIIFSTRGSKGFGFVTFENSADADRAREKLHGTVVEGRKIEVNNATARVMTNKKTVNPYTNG
Kind of test: EMSA; HiTS-Eq, 1 nM pool, 10 min; buffer printed only for the single-RNA assays: 10 mM Tris pH 7.5, 150 mM NaCl, 3.4 mM EDTA, 0.001% NP-40, 30 C. Conditions: tags: His6 N-terminal (pET28a); label: 5' 32P. A digest of the protocol: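 Relative association constants, normalised to the cognate motif, were derived by comparing read counts of each RNA species with those of the control reaction. The RNA sequenced was the free fraction, separated by 8% native PAGE after a 10 min equilibration in 50 µL of 1 nM 5′-radiolabelled RNA (7 randomized nucleotides) with increasing concentrations of purified wild-type or mutant RbFox RRM.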
As to B1, the binding signal was 0.0712 KA relative to UGCAUGU.

For B2, the binding signal is 0.0537 KA relative to UGCAUGU.

On to B3, for which the binding signal was 0.0374 KA relative to UGCAUGU.

With B4, the binding signal was 0.0949 KA relative to UGCAUGU.

B5: the binding signal is 0.0965 KA relative to UGCAUGU.

As for B6, the binding signal was 0.0874 KA relative to UGCAUGU.

As for B7, the binding signal is 0.112 KA relative to UGCAUGU.

Take B8: the binding signal is 0.151 KA relative to UGCAUGU.

On to B9, for which the binding signal is 0.095 KA relative to UGCAUGU.

As to B10, the binding signal is 0.108 KA relative to UGCAUGU.

On to B11, for which the binding signal was 0.0815 KA relative to UGCAUGU.

Consider B12, for which the binding signal is 0.103 KA relative to UGCAUGU.

For B13, the binding signal was 0.131 KA relative to UGCAUGU.

For the molecule B14, the binding signal is 0.103 KA relative to UGCAUGU.

With B15, the binding signal was 0.086 KA relative to UGCAUGU.

In the case of B16, the binding signal was 0.0751 KA relative to UGCAUGU.

Consider B17, for which the binding signal is 0.0643 KA relative to UGCAUGU.

Take B18: the binding signal was 0.0771 KA relative to UGCAUGU.

Regarding B19, the binding signal was 0.112 KA relative to UGCAUGU.

Regarding B20, the binding signal is 0.108 KA relative to UGCAUGU.

Take B21: the binding signal was 0.101 KA relative to UGCAUGU.

As to B22, the binding signal is 0.137 KA relative to UGCAUGU.

Consider B23, for which the binding signal is 0.153 KA relative to UGCAUGU.

For B24, the binding signal is 0.0887 KA relative to UGCAUGU.

As for B25, the binding signal is 0.137 KA relative to UGCAUGU.

Take B26: the binding signal was 0.0602 KA relative to UGCAUGU.

Take B27: the binding signal is 0.128 KA relative to UGCAUGU.

Regarding B28, the binding signal was 0.0643 KA relative to UGCAUGU.

Consider B29, for which the binding signal is 0.0884 KA relative to UGCAUGU.

On to B30, for which the binding signal was 0.0891 KA relative to UGCAUGU.

Regarding B31, the binding signal was 0.0683 KA relative to UGCAUGU.
